The results in this text go back to ChEMBL document CHEMBL4888484, “Replenishing the malaria drug discovery pipeline: Screening and hit evaluation of the MMV Hit Generation Library 1 (HGL1) against asexual blood stage Plasmodium falciparum ,using a nano luciferase reporter read-out” (2022).

Screen size: about 150,000 compounds; about 540 (0.36%) showed an effect of 50% or more. Some of the results follow.

The subject of this assay is Plasmodium falciparum. Briefly: Primary screen in NF54 nanoGlo assay, in single point, at 2uM, 72h; a lower Z score goes with more inhibition. It counts as functional, Erythrocyte. As to conditions: timepoint 72 hour.
The % Inhibition is the drop in the measured response relative to a control, in per cent. Take `COc1cccc(Cn2c(C)c(C3=CCN(S(=O)(=O)c4ccc(CC(C)C)cc4)CC3)c3ccccc32)c1`: the “% Inhibition” value is given as -9% and the Z score was determined as 1.25.
Regarding `CC(=O)N1C[C@H]2CN(C(=O)CCC(C)C)C[C@@]2(C(=O)N2CCCC2)C1`, the “% Inhibition” value is listed as -4% and the Z score was 0.56.
As for `CN1CCC[C@H](C(=O)NCc2cccnc2Oc2ccc(F)cc2F)C1`, the “% Inhibition” value turned out to be 0% and the Z score was -0.04.
Consider `O=C(Nc1cccc2[nH]ncc12)N1CCC(N2CCOC2=O)CC1`, for which the “% Inhibition” value is reported as -4% and the Z score came out at 0.65.
For the compound `CCc1csc(-c2cn(CC(=O)NCc3ccc4c(c3)OCO4)cn2)n1`, the “% Inhibition” value is reported as -3% and the Z score worked out at 0.5.
Turning to `COc1cccc(CNS(=O)(=O)c2cc(C(=O)N3CCOCC3)cs2)c1`, the “% Inhibition” value is on record as 10% and the Z score is recorded as -1.76.
The like results for `CC[C@H]1CCCCN1C(=O)CN1CCNCC1=O` were, in that order, -6% and 1.01.
As for `O=C(c1cc2ncccn2n1)N1CCN(c2ncccn2)CC1`, the “% Inhibition” value is -2% and the Z score was determined as 0.31.
As for `CC(C)c1nccc(CN2CCOC[C@@H]2CO)n1`, the “% Inhibition” value is -5% and the Z score was found to be 0.66.
As for `COC(=O)C(NC1CCN(c2ccc(Cl)cc2)C1)c1cccnc1` (stereo not drawn), the “% Inhibition” value is listed as -6% and the Z score was determined as 0.77.
Regarding `CCN(CC(=O)Nc1ccc2c(c1)OCCO2)C(=O)[C@H]1CCS(=O)(=O)C1`, the “% Inhibition” value is -3% and the Z score is given as 0.47.
Turning to `O[C@H]1[C@H](NCc2ccc(Cl)c(Cl)c2)[C@H]2CO[C@H](O2)[C@@H]1n1cncn1`, the “% Inhibition” value is 7% and the Z score was -1.06.
On to `COc1ccc(NC(=O)C2CCCN2CC2CCC(C)O2)cc1` (stereo not drawn), for which the “% Inhibition” value is -3% and the Z score turned out to be 0.43.
With `COc1cccc(S(=O)(=O)N2CCN(c3nc4nccc(-c5cccc(C(F)(F)F)c5)n4n3)CC2)c1`, the “% Inhibition” value is recorded as -10% and the Z score is given as 1.42.
Take `Cc1ccc(CN(CCN(C)C)C(=O)CCc2n[nH]c(C)c2C)s1`: the “% Inhibition” value stood at 1% and the Z score was -0.17.
Consider `CNC(=O)C(C)(C)N(C)Cc1ccc([C@@H]2CCCO2)s1`, for which the “% Inhibition” value is on record as 4% and the Z score was -0.71.
The like results for `O=C(Cc1c[nH]c2ccccc12)Nc1cnn(C[C@H]2COc3ccccc3O2)c1` were, in that order, 19% and -2.46.
For the compound `Cc1ccc(NC(=O)CN2C(=O)CCc3cc(S(=O)(=O)N4CCOCC4)ccc32)cc1N(C)C`, the “% Inhibition” value is on record as -9% and the Z score was 1.72.
On the same counts, the results for `CN(C)c1nc(CNC(=O)Cn2ncccc2=O)nc(N(C)C)n1` are -11% and 1.44.
On the same counts, the results for `CCN(CC)C[C@H]1CCCN(CC2OCCO2)C1` are -3% and 0.5.
Consider `Nc1nc2c(s1)[C@@H](c1ccc(OCc3ccccc3)cc1)CC(=O)N2`, for which the “% Inhibition” value turned out to be 4% and the Z score is listed as -0.5.
As for `CCc1nc(CN2CCC[C@H](S(=O)(=O)N(C)CCOC)C2)n[nH]1`, the “% Inhibition” value is -49% and the Z score was found to be 5.71.
Consider `CCOc1ccc([C@@H]2CC(=O)NC(NC(=O)c3ccccc3F)=N2)cc1OC`, for which the “% Inhibition” value was 11% and the Z score is -1.35.
The like results for `O=C(COc1ccccc1)NC[C@@H]1C[C@H](F)CN1C(=O)c1ccsc1` were, in that order, 20% and -2.67.
On to `CCCn1cc(C2=CCN(S(=O)(=O)c3ccc(F)c(Cl)c3)CC2)c2cccnc21`, for which the “% Inhibition” value is given as -22% and the Z score was 2.94.
The like results for `Cc1nn(C)c2c1N(C(=O)c1cc[nH]c1C1CCC1)CCO2` were, in that order, -16% and 2.34.
`Cc1c[nH]c2ccc(NC(=O)N3C[C@H](C)OC4(CCCCC4)C3)cc12`: the “% Inhibition” value is on record as -8% and the Z score is 1.09.
Turning to `CCC1CCC2(CC1)Nc1ccccc1-c1nc3ccccc3n12` (stereo not drawn), the “% Inhibition” value turned out to be 0% and the Z score is -0.05.
`COc1ccccc1CNC(=O)CN1CCC[C@H]1C(=O)N1CCOCC1`: the “% Inhibition” value is listed as -12% and the Z score amounted to 1.56.
`Cn1ncc2c(N[C@H]3CCN(CCCc4ccccc4)C3=O)ccnc21`: the “% Inhibition” value is -1% and the Z score is reported as 0.28.
With `O=C(NCCS(=O)(=O)NCc1ccoc1)OCc1ccccc1`, the “% Inhibition” value is recorded as -12% and the Z score is given as 1.35.
Turning to `O=C(c1cccnc1)N(Cc1ccccc1)CC1(O)CCCC1`, the “% Inhibition” value is reported as -10% and the Z score worked out at 1.14.
The like results for `CC(=O)N1CCc2ccc(OCc3nc(C(=O)NCCc4ccccn4)cs3)cc2[C@@H]1c1ccc(F)cc1` were, in that order, -12% and 1.47.
As for `CCOc1ccc(-c2cn(C3CN(c4nccnc4C#N)C3)nn2)cc1`, the “% Inhibition” value was found to be 13% and the Z score was -1.7.
With `Cn1ncc2nnn(-c3ccccc3)c(=O)c21`, the “% Inhibition” value is reported as 36% and the Z score is on record as -4.88.
Turning to `COc1cc(OC)c(NC(=O)Nc2cccc(-c3noc(C4CCC4)n3)c2)cc1Cl`, the “% Inhibition” value is -7% and the Z score is on record as 0.7.
With `Cc1nc(-c2ccnc(NCc3cnc(C4CC4)s3)c2)n[nH]1`, the “% Inhibition” value is recorded as -10% and the Z score was 1.24.
With `CC(C)[C@H](CNC(=O)c1cccc[n+]1[O-])Cc1ccccc1`, the “% Inhibition” value is listed as -12% and the Z score came to 1.53.
`CCOc1ncccc1CNC(=NC)NCc1cccs1`: the “% Inhibition” value is -18% and the Z score is given as 1.71.
Consider `Cc1nn(S(=O)(=O)Cc2ccccc2)c(C)c1Cl`, for which the “% Inhibition” value was -2% and the Z score was found to be 0.27.
For the compound `CC(C)NC(=O)c1ccc(-c2cncnc2)o1`, the “% Inhibition” value is reported as 1% and the Z score is recorded as -0.12.
Turning to `Cc1ccn(CCn2ccc(-c3cccc(-c4cnccn4)c3)n2)n1`, the “% Inhibition” value is given as -8% and the Z score came out at 1.5.
The like results for `CC(C)CN1CC[C@H](CNC(=O)c2ccc(NC3CCC3)nc2)C1` were, in that order, -7% and 0.9.
Take `COc1cccn2cc(CCN3C(=O)c4ccccc4C3=O)nc12`: the “% Inhibition” value was -4% and the Z score came to 0.46.
On to `C[C@@H]1CCCN1Cc1ccc(-c2cncnc2)cc1Cl`, for which the “% Inhibition” value is recorded as -3% and the Z score stood at 0.54.
The like results for `CC1CCC(Cn2c(N)nc(C#N)c2C#N)O1` (stereo not drawn) were, in that order, -8% and 1.08.
Regarding `CC1(C)CO[C@H](c2cccc(Cl)c2)CN1C(=O)CS(C)(=O)=O`, the “% Inhibition” value is 0% and the Z score came to 0.08.
On to `COC(=O)N(C)CC(=O)NCc1ccco1`, for which the “% Inhibition” value is -50% and the Z score was 5.82.
Regarding `CN(CC#N)C(=O)[C@@H]1COCC(=O)N1Cc1ccccc1`, the “% Inhibition” value is recorded as -3% and the Z score was 0.59.
On the same counts, the results for `COC(=O)[C@H](CC(C)C)OC(=O)CN1CCS(=O)(=O)CC1` are 7% and -0.89.
In the case of `CNC(=O)N1CCC2(C)C(C1)C2(F)F` (stereo not drawn), the “% Inhibition” value was -6% and the Z score worked out at 0.91.
The like results for `COc1nc2c(cc1CNC(=O)c1ccccc1O)C(=O)N(C1CCCC1)C2` were, in that order, -19% and 2.89.
`O=C(N[C@H]1CCCn2ncnc21)c1cccc2c1CCC2`: the “% Inhibition” value is 0% and the Z score is on record as -0.03.
Consider `COC(=O)c1cc(-c2noc([C@@H](C)c3cnn(C)c3)n2)cn1C`, for which the “% Inhibition” value was -25% and the Z score worked out at 2.63.
In the case of `CS(=O)(=O)N1CCN=C1N1CCC(Cc2ccccc2)CC1`, the “% Inhibition” value is recorded as -1% and the Z score is 0.13.
For `Cn1nc2n(c1=O)C[C@@H](c1nc(-c3cccnn3)no1)CC2`, the “% Inhibition” value is listed as -7% and the Z score turned out to be 1.2.
Take `Cc1ccc(CN(c2ccc(C(=O)NC3CC4CCC3C4)cc2)S(C)(=O)=O)cc1` (stereo not drawn): the “% Inhibition” value turned out to be 1% and the Z score is reported as -0.07.
`CN(C)S(=O)(=O)c1ccc2c(c1)nnn2CCCC(=O)Nc1ccccn1`: the “% Inhibition” value is 4% and the Z score is recorded as -0.55.
As to `CCn1ncnc1[C@H]1CC(=O)Nc2c1c(C(C)(C)C)nn2C`, the “% Inhibition” value is reported as -9% and the Z score is recorded as 1.03.
The like results for `CCc1ncc(CNC(=O)c2cc(C(F)F)n(C)n2)o1` were, in that order, -16% and 2.08.
Regarding `Cc1nn(-c2ccccc2)c(N2CCC(C(=O)NCc3cccc(F)c3)CC2)c1-n1c(C)ccc1C`, the “% Inhibition” value is -13% and the Z score stood at 1.62.
For `CNc1nc(C)nc(O)c1Br`, the “% Inhibition” value is given as 37% and the Z score was -0.86.
On the same counts, the results for `Clc1cccc(-c2[nH]c(-c3c4ccccc4c(Cl)c4ccccc34)nc2-c2ccccc2)c1Cl` are 0% and -0.01.
With `CC(NC1CCCC1CNC(=O)OC(C)(C)C)C1CCOCC1` (stereo not drawn), the “% Inhibition” value is on record as -16% and the Z score was found to be 1.79.
As for `COc1cccc(S(=O)(=O)N2CCN(c3cc(C)nc(N4CCOCC4)n3)CC2)c1`, the “% Inhibition” value is given as -4% and the Z score worked out at 0.48.
In the case of `CCO[C@H]1CCCN(C(=O)C(=O)Nc2ccn(-c3ccccc3)n2)C1`, the “% Inhibition” value is reported as -6% and the Z score came to 0.72.
`Cc1cc(F)ccc1CN1CCCNC(=O)[C@@H]1Cc1ccccc1`: the “% Inhibition” value worked out at 3% and the Z score is listed as -0.47.
On the same counts, the results for `COC[C@H]1C[C@@H](NC(=O)COc2ccccc2)[C@H](O)[C@@H]1O` are -5% and 0.69.
Regarding `CCCc1nccn1-c1ccc2cc[nH]c(=O)c2c1`, the “% Inhibition” value was -12% and the Z score was 1.65.
As to `COc1cccc(C2CC(C(=O)N3CCCCC3)N(C)S(=O)(=O)N2)c1` (stereo not drawn), the “% Inhibition” value is -3% and the Z score was found to be 0.45.
Turning to `CC(C)C1(CNC(=O)[C@H]2CCCN(C3CCN(Cc4cccnc4)CC3)C2)CC1`, the “% Inhibition” value is recorded as -7% and the Z score is on record as 0.65.
For the compound `CCn1nc(C)cc1C(=O)N1CCC(CCC(=O)Nc2ccc3c(c2)OCCO3)CC1`, the “% Inhibition” value was -16% and the Z score came to 1.46.
On the same counts, the results for `O=C1NCCCCCN(Cc2c[nH]nc2-c2ccc(F)cc2)[C@H]2CCC[C@@H]12` are -9% and 1.22.
For the compound `O=S(=O)(c1ccc(Cl)cc1)N1CC(F)(F)C[C@H]1CN1CCc2ccccc2C1`, the “% Inhibition” value was -8% and the Z score amounted to 1.31.
With `COCCN1C[C@@H](Cc2cncc3ccccc23)CC1=O`, the “% Inhibition” value amounted to 7% and the Z score is given as -0.91.
On the same counts, the results for `O=C1c2ccccc2C(=O)N1c1ccc2c(c1)OCCO2` are -11% and 1.35.
On to `O=C1CN(C(=O)CCC(=O)N2CCc3ccccc3C2)CCN1`, for which the “% Inhibition” value is -11% and the Z score came out at 1.31.
The like results for `CN1CC[C@H](Cc2nc(-c3cnc(OCC(F)F)cn3)no2)C1` were, in that order, 1% and -0.07.
For `CC[C@@H](C(=O)NCCc1ccccn1)n1cccn1`, the “% Inhibition” value is on record as -3% and the Z score stood at 0.53.
For `CCOc1cc(N2Cc3cn[nH]c3C2)ncn1`, the “% Inhibition” value is -7% and the Z score stood at 0.78.
Take `CN1CCN(c2cccc(NC(=O)NCCc3nccs3)c2)C1=O`: the “% Inhibition” value is recorded as -14% and the Z score was found to be 1.83.
Turning to `Cc1nnc(CNC(=O)C(C)(C)Oc2ccc3c(c2)CCC3)o1`, the “% Inhibition” value is reported as -14% and the Z score is 1.53.
On the same counts, the results for `CCn1ncc(C(=O)N2CCC[C@@](F)(c3nc(C)no3)C2)c1C` are -8% and 1.
On to `O=C(N[C@H]1CC[C@@H](CO)CC1)c1csc(N2CCCCC2)n1`, for which the “% Inhibition” value is listed as -7% and the Z score is 1.15.
